Here are results for 56 compounds from PMC4336329 (PLoS ONE, 2015).

Hit rate of the full screen: of about 310,000 compounds, about 14,000 (4.5%) showed an effect of 50% or more. The effect is printed as a negative number. Some of the results follow.
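Also: peak tail current of the secondary pulse compared with the same well before compound.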

human ether-à-go-go-related gene (hERG) potassium channel, sequence (Q12809 whole entry, looked up): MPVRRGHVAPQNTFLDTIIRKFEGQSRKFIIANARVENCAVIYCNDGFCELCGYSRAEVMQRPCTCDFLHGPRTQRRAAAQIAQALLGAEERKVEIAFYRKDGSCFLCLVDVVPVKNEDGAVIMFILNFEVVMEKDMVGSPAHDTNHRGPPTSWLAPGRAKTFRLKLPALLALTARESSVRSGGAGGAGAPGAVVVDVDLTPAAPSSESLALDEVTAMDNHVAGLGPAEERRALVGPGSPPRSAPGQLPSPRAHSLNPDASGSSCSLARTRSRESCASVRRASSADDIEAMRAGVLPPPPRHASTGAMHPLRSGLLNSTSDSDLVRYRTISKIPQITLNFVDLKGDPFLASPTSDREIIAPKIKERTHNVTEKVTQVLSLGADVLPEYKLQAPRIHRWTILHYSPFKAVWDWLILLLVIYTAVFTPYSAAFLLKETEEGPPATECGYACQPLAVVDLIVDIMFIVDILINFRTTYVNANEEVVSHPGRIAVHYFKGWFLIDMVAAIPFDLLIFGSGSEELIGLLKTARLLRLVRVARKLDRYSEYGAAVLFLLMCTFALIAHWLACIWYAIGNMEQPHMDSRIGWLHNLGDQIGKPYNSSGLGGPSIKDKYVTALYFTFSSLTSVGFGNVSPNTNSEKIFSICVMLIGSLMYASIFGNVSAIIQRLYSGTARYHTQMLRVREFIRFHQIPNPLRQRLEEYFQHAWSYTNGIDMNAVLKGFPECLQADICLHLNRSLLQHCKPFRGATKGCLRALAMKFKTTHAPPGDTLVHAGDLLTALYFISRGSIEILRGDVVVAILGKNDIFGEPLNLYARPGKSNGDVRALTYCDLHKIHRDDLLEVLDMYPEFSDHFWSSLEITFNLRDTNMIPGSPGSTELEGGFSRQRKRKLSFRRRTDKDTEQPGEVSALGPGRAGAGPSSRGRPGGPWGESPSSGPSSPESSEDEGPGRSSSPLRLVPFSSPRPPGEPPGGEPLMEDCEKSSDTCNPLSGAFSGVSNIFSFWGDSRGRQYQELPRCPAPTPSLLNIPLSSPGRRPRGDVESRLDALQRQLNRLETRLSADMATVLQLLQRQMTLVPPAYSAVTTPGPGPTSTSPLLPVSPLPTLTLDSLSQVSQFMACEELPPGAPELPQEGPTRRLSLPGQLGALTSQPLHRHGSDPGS

The test has as its target human ether-à-go-go-related gene (hERG) potassium channel (human, UniProt Q12809). Kind of test: primary screen, population patch clamp on CHO cells stably expressing hERG.
With `COC(=O)Cc1ccc(NC(C)=O)cc1`, the “hERG current change (%, negative = inhibition) at 10uM” value came to 8.79%.
As to `O=C(Nc1ncccc1O)c1ccc2c(c1)OCCO2`, the “hERG current change (%, negative = inhibition) at 10uM” value was found to be 21.1%.
Take `Cc1ccc(S(=O)(=O)NCCSCc2ccco2)cc1`: the “hERG current change (%, negative = inhibition) at 10uM” value is recorded as -4.42%.
With `Cc1ccc(S(=O)(=O)N2CCCN(S(=O)(=O)c3ccc(C)cc3)CC2)cc1`, the “hERG current change (%, negative = inhibition) at 10uM” value is -19.5%.
As for `O=C1NC2=C(C(=O)CCC2)C(c2ccccc2)N1` (centres unmarked), the figure is 20.2%; as for `Cc1csc(C(=O)O)c1NC(=O)c1ccc(F)cc1`, 1.02%.
For the compound `O=S(=O)(Nc1ccc2c(c1)OCO2)c1ccc(F)c(F)c1`, the “hERG current change (%, negative = inhibition) at 10uM” value is recorded as -24%.
Take `CN(C)CCCNS(=O)(=O)c1ccc(Oc2ncc(C(F)(F)F)cc2Cl)cc1`: the “hERG current change (%, negative = inhibition) at 10uM” value is recorded as -26.2%.
As for `COc1ccc(CNC(=O)C(CCSC)NS(=O)(=O)c2ccccc2F)cc1` (centres unmarked), the figure is -2.32%; as for `Cc1cc(NC(=O)c2ccc(N3CCCC3)c([N+](=O)[O-])c2)no1`, 21.9%.
On to `CC(C)c1nc(C#N)c(NCCCn2ccnc2)o1`, for which the “hERG current change (%, negative = inhibition) at 10uM” value was 18.7%.
Turning to `O=[N+]([O-])c1cccc(S(=O)(=O)c2cccc([N+](=O)[O-])c2)c1`, the “hERG current change (%, negative = inhibition) at 10uM” value is reported as 15%.
With `COc1ccc(C)cc1S(=O)(=O)N(CC(N)=O)Cc1ccccc1`, the “hERG current change (%, negative = inhibition) at 10uM” value is given as -5.74%.
Take `CCCC(=O)Nc1sc(C)c(C)c1C(=O)Nc1cccc(C)c1`: the “hERG current change (%, negative = inhibition) at 10uM” value was -10.2%.
As for `O=C(C1=C[C@@H](C2CC2)C[C@@H](OCCCCO)O1)N1CCOCC1`, the “hERG current change (%, negative = inhibition) at 10uM” value is -1.98%.
In the case of `COc1ccc(Nc2sc(C(=O)Nc3cccc(Cl)c3)c(N)c2C(=O)Nc2ccccc2OC)cc1` it was 2.38%; in that of `Cc1nn(-c2ccccc2)c(Cl)c1C(=O)N(C)CC(=O)Nc1cccc(F)c1`, -17.1%.
On to `CCC(C)(C)NC(=O)C(c1ccc(OC)cc1)N(C(=O)CCC(=O)Nc1cc(C)on1)c1ccccc1F` (centres unmarked), for which the “hERG current change (%, negative = inhibition) at 10uM” value came out at 5.7%.
In the case of `c1ccc(CNc2cncnc2)cc1` it was 8.56%.
As to `C/C(=N\Nc1ccc(C(=O)c2c(C)cc3ccccn23)cc1[N+](=O)[O-])c1ccc(O)cc1`, the “hERG current change (%, negative = inhibition) at 10uM” value is -0.737%.
Regarding `O=C(c1cc(-c2ccccc2)nc2ccccc12)N1CCN(C2CCS(=O)(=O)C2)CC1` (centres unmarked), the “hERG current change (%, negative = inhibition) at 10uM” value is -25%.
As for `Cc1ccc(-c2cn3c(=S)[nH]nc3s2)cc1`, the figure is 13%; as for `CSCCC(NS(=O)(=O)c1ccc(C)cc1)C(=O)NC1CCCCC1` (centres unmarked), -0.287%.
Regarding `O=C1Nc2cc(C(=O)N3CCN(c4ccc(F)cc4)CC3)ccc2NC1CSCc1cccc(F)c1` (centres unmarked), the “hERG current change (%, negative = inhibition) at 10uM” value is 15.7%.
In the case of `O=C(NCC(=O)N1CCN(c2ccccc2F)CC1)c1cccs1` it was -6.55%; in that of `O=C(O)CN1C(c2ccccc2)=Nc2ccc(Br)cc2C1c1ccccc1` (centres unmarked), 13.9%.
As to `O=c1c(-n2cncn2)c[nH]n1-c1cccc(Cl)n1`, the “hERG current change (%, negative = inhibition) at 10uM” value amounted to 17.3%.
Turning to `COc1ccc(CN(CC(=O)NC2CCCC2)C(=O)c2ccc(-c3ccccc3)[nH]2)cc1`, the “hERG current change (%, negative = inhibition) at 10uM” value is given as -19.9%.
For the compound `COC(=O)c1cc(O)c(O)c(O)c1`, the “hERG current change (%, negative = inhibition) at 10uM” value was 3.4%.
For `Cc1ccc(N(C(=O)C(F)(F)F)C(C(=O)NC2CCCCC2)c2cccs2)cc1C` (centres unmarked), the “hERG current change (%, negative = inhibition) at 10uM” value was determined as 7.36%.
As for `CCOC(=O)C1=C(c2ccccc2)NC(=O)NC1c1cc(Br)c(O)c(OC)c1` (centres unmarked), the figure is -4.97%.
Take `CC(C)C(C(=O)Nc1nccs1)c1ccccc1` (centres unmarked): the “hERG current change (%, negative = inhibition) at 10uM” value came to 4.12%.
Take `CC(=O)NC(CCS(C)(=O)=O)C(=O)Nc1ccc2c(c1)OCCO2` (centres unmarked): the “hERG current change (%, negative = inhibition) at 10uM” value is reported as -18.1%.
In the case of `CCC(=NCc1ccc(F)cc1)c1c(O)n(C)c(=O)n(C)c1=O`, the “hERG current change (%, negative = inhibition) at 10uM” value is reported as -26.6%.
In the case of `O=[N+]([O-])c1ccc2c(c1)nc1n2CCN(CC2CCCO2)C1` (centres unmarked), the “hERG current change (%, negative = inhibition) at 10uM” value was -10.9%.
`CC(C)c1ccc(C(=O)Nc2nnc(S(=O)(=O)N3CCOCC3)s2)cc1`: the “hERG current change (%, negative = inhibition) at 10uM” value was -2.56%.
As for `CCn1c(SCC(=O)Nc2ccccc2)nc2nc3c(cc2c1=O)COC(C)(C)C3`, the figure is -61.8%; as for `O=C(Cc1ccc(S(=O)(=O)N2CCOCC2)s1)N1CCN(S(=O)(=O)c2ccc(Cl)cc2)CC1`, -26%.
For `O=C(Nc1cccc(Cl)c1)c1cc(S(=O)(=O)NCCc2ccc(Cl)cc2)ccc1F`, the “hERG current change (%, negative = inhibition) at 10uM” value is given as 8.76%.
`O=C(Nc1ccc(-c2csc(Nc3ccccc3)n2)cc1)c1ccccc1`: the “hERG current change (%, negative = inhibition) at 10uM” value is on record as 10.6%.
As to `C[C@H]1CN=C(N(C)C)N1CCCC1CCCC1`, the “hERG current change (%, negative = inhibition) at 10uM” value is recorded as -37.8%.
In the case of `O=S(=O)(Cc1ccccc1)Nc1ccc(S(=O)(=O)NCC2CCCO2)cc1` (centres unmarked) it was 7.21%; in that of `O=C(Nc1ccc(S(=O)(=O)NC2=NCCCCC2)cc1)c1ccco1`, 2.7%.
As to `Cc1cc(N2CCOCC2)n2nc(-c3cccc(F)c3)cc2n1`, the “hERG current change (%, negative = inhibition) at 10uM” value is reported as 0.119%.
For the compound `CC(C)N(C(=O)C(F)(F)F)C(C(=O)NC1CCCCC1)c1ccncc1` (centres unmarked), the “hERG current change (%, negative = inhibition) at 10uM” value is -10.1%.
In the case of `COc1ccc(S(=O)(=O)Nc2ccc(S(=O)(=O)N3CCCCC3)cc2)cc1OC`, the “hERG current change (%, negative = inhibition) at 10uM” value was -10.2%.
Consider `S=C(NCc1ccc2c(c1)OCO2)NCc1ccco1`, for which the “hERG current change (%, negative = inhibition) at 10uM” value is listed as 0.766%.
For `CC1CCN(C(=O)CSC2=NS(=O)(=O)c3cc(F)ccc3N2)CC1`, the “hERG current change (%, negative = inhibition) at 10uM” value was -2.95%.
With `COc1cc(Cl)c(S(=O)(=O)NCCCn2ccnc2)cc1Cl`, the “hERG current change (%, negative = inhibition) at 10uM” value turned out to be 3.34%.
In the case of `CCOC(=O)C1CCCN(C(=O)c2cc3ccccc3oc2=O)C1` (centres unmarked), the “hERG current change (%, negative = inhibition) at 10uM” value worked out at 17.8%.
In the case of `Cc1ccc(C(=O)NCC(c2ccco2)N2CCCCC2)s1` (centres unmarked) it was -42.5%.
In the case of `NC(=O)CC(NC(=O)Cc1ccc(Cl)cc1)c1ccc(NCCN2CCOCC2)c([N+](=O)[O-])c1` (centres unmarked) it was 19.9%; in that of `CC(=O)Nc1ccccc1-c1nnc(SCc2ccccc2Cl)[nH]c1=O`, 4.86%; in that of `CC(C)Oc1ccc(C2C(C(=O)c3ccco3)=C(O)C(=O)N2Cc2cccnc2)cc1` (centres unmarked), 15.8%.
As for `COc1ccc(/C(O)=C2\C(=O)C(=O)N(CCN(C)C)C2c2cc(OC)c(OC)c(OC)c2)c(C)c1` (centres unmarked), the figure is 3.79%; as for `Cl.O=C(NCCCN1CCOCC1)c1ccc(Cl)c(S(=O)(=O)N2CCCCCC2)c1`, -50.6%.
